Results as given in PubChem BioAssay AID493208 (National Center for Advancing Translational Sciences (NCATS), 2011).
Hit rate of the full screen: of about 44,000 compounds, about 340 (0.77%) were called active. Inconclusive results (about 5%) are left out. Calls come from the whole dose curve; as a rule, active = well fitted inhibition curve with a large enough effect; inconclusive = small, poorly fitted or top-dose-only effect; inactive = flat fitted curve, though single readings scatter. The list shows a part of the results.

Assay: Acumen qHTS Assay for Inhibitors of the mTORC1 Signaling Pathway in MEF (Tsc2-/-, p53-/-) Cells: Sytravon;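 note: plate controls were DMSO for no effect and rapamycin for full effect; nearly all actives have a fitted effect of over 50% in size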
Conditions: phospho-rpS6 immunofluorescence/PI, 24 h; series mostly up to 38.3 µM; activity change, negative = inhibition: at the top concentration
Method in brief: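 Tsc2-/-, p53-/- mouse embryonic fibroblasts (empty-vector line) exposed to compound 24 hrs at 37 C, fixed, immunostained for phospho-rpS6 and counterstained with propidium iodide. Acumen laser scanning gives % positive cells from Alexa 488/PI ratio, thresholded using 7.5 nM rapamycin; PI count gives viability.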

Activity change, negative = inhibition, inactive:
CC(C)Oc1ccc(C(=O)N(Cc2ccco2)c2ccccn2)cc1 -21.1%
Cc1ccc(C)c(NC(=O)CN2C(=O)C(C)(C)c3ccccc32)c1 -2.05%
O=C(Nc1sc2c(c1C(=O)NCc1ccco1)CCCC2)c1cc(=O)c2ccccc2o1 0.16%
COc1ccc(Br)cc1CNC(=O)c1cc2n(n1)CCCN(Cc1ccc(C)cc1)C2=O 0%
CCc1ccc(CN(Cc2ccco2)c2cnc(S(C)(=O)=O)nc2C(=O)Nc2ccccc2Cl)cc1 -8.84%
COC(=O)c1scc(-c2ccc(C)cc2)c1S(=O)(=O)N1CCN(c2cccc(OC)c2)CC1 1.44%
CCc1nnc(SC(CC)C(=O)Nc2cccc(OC)c2)c2cc3oc(C)cc3n12 (stereo unspecified) -14.3%
Cc1ccc(Sc2c(C)nn(C(C)(C)C)c2OC(=O)C(C)(C)C)cc1 -2.88%
O=C(NCc1ccco1)c1ccc2c(c1)N(Cc1ccc(Cl)cc1)C(=O)c1ccccc1S2=O (stereo unspecified) -0.652%
Cc1ccc(NC(=O)Nc2ccc3snnc3c2)cc1C -9.8%
CCN(c1ccccc1)c1nnc(NC(=O)Nc2ccccc2F)s1 -0.121%
Cc1ccc2c(=O)cc(C(=O)Nc3sc4c(c3C(=O)NCc3ccco3)CCCC4)oc2c1C -3.62%
CCc1ccc(CNC(=O)c2nn(-c3ccc(C)c(C)c3)nc2CO)cc1 -0.683%
CCC(C)NC(=O)Cn1ncc2c(C)n(Cc3ccc(F)cc3)c(C)c2c1=O (stereo unspecified) -7.45%
Cc1cc(=O)[nH]c2nnc(SCC(=O)Nc3cc(C(F)(F)F)ccc3Cl)n12 -0.0087%
COC(=O)c1ccc(Cn2c(=O)cc(C)c3c(C)nn(C)c32)cc1 4.13%
CC(=O)CSc1nc(-c2ccccc2)[nH]c1S(=O)(=O)c1ccc(C)cc1 -2.79%
CCOc1ccc(Sc2cc(C(=O)NCc3ccc(F)cc3)c3ccccc3n2)cc1 0%
CCn1cc(C(=O)N2CCN(c3ccccc3)CC2)c(=O)c2cc(S(=O)(=O)N(C)C3CCCCC3)ccc21 -0.461%
CN(C)c1ccc(C(CNC(=O)COc2ccccc2)N2CCOCC2)cc1 (stereo unspecified) 24.7%
O=C(CN1C(=O)CCSc2ccc(S(=O)(=O)N3CCCC3)cc21)Nc1cccc(Cl)c1 -6.65%
CCOc1ccc(NC(=O)Nc2c(C)n(C)n(-c3ccccc3)c2=O)cc1 -1.3%
CCN(CC)S(=O)(=O)c1ccc2c(c1)N(CC(=O)NCc1ccccc1)C(=O)CS2 0.534%
COc1cc(Cl)c(C)cc1NC(=O)CSc1cc(=O)n(C)c2cc(Cl)ccc12 -0.916%
Cc1c(Cl)cccc1NC(=O)N1CCN(Cc2cc(=O)n3nc(-c4ccccc4F)sc3n2)CC1 2.74%
CCCS(=O)(=O)N1CCC(N2CCN(Cc3ccc(C)cc3)C(=O)C2=O)CC1 0%
Cc1nn(C)c2c1c(-c1ccccc1)cc(=O)n2Cc1ccccc1F 0.243%
Cc1ccc(-c2noc(CCC(=O)Nc3ccc(F)cc3Cl)n2)cc1 -21%
COc1ccc(NC(=O)c2cccc(N3CCCS3(=O)=O)c2)cc1 -1.53%
NC(=O)CSc1ncc2c(n1)-c1ccccc1N(Cc1ccccc1)S2(=O)=O -5.89%
COc1ccc(NS(=O)(=O)c2ccc3c(c2)CCN3C(=O)C2CC2)cc1OC -5.82%
Cc1cc(C)c2c(=O)cc(C(=O)NCCc3ccc(S(N)(=O)=O)cc3)oc2c1 0.309%
COc1cccc(CNC(=O)Cn2c(=O)c3cccn3c3ccc(F)cc32)c1OC -4.58%
Cc1ccccc1CNC(=O)C(=O)NCC(c1ccco1)S(=O)(=O)c1ccc(F)cc1 (stereo unspecified) 4.26%
Cc1cccc(NC(=O)CSc2nnc(-c3cccs3)o2)c1 -7.5%
Cc1noc2ncnc(Nc3ccc(F)cc3)c12 -0.818%
Cc1cccc(NC(=O)C(c2ccccc2)N2Cc3ccccc3C2=O)c1C (stereo unspecified) -1.89%
COc1ccccc1N1CCN(C(=O)CCn2cnc3onc(-c4ccc(F)cc4)c3c2=O)CC1 4.17%
COc1cccc2cc(-c3nnc(Nc4ccccc4C)s3)c(=O)oc12 -1.4%
Cc1cc(F)ccc1NC(=O)C1CCCN(c2nnc(-n3c(C)ccc3C)s2)C1 (stereo unspecified) -7.15%
Cc1cc(C)cc(N2C(=O)CS(=O)(=O)C23C(=O)N(Cc2ccc(F)cc2)c2ccc(C)cc23)c1 (stereo unspecified) 5.91%
COc1ccc(NC(=O)Cn2c(=O)nc(-c3ccccc3)c3ccccc32)cc1OC 1.01%
Cn1ncc(C(=O)N2CCN(c3ccccc3)CC2)c1C1CCN(C(=O)OC(C)(C)C)CC1 0.431%
CCOc1ccc(-c2cc3nc(C4CCN(C(=O)OC(C)(C)C)CC4)c(C(=O)Nc4ccc(C(=O)OC)cc4)cn3n2)cc1 -15.8%
Cc1ccc(CCNC(=O)NCc2noc3ccc(C)cc23)cc1 -4.63%
Cc1cc(C)n2nc(CNC(=O)c3cccc(Cl)c3)nc2n1 -9.12%
CSc1ccc(CCNC(=O)C(C)n2nc(C)c3c(C)n(-c4ccccc4)nc3c2=O)cc1 (stereo unspecified) -1.82%
Cc1cccc(CNC(=O)c2ccc(-c3nc(CS(=O)(=O)c4ccccc4)c(C)o3)cc2)c1 -3.62%
Cc1ccc(CCNC(=O)Cn2nc(C)c3c(C)n(-c4ccc(C)cc4)nc3c2=O)cc1 0.469%
Cc1ccc(NC(=O)COc2ccc3oc4c(c3c2)CCCC4)c(C)c1 -0.595%
CN(C)c1ccc(-c2nc(-c3ccccn3)no2)cc1[N+](=O)[O-] 1.73%
COc1ccccc1N1CCN(C(=O)C2CCN(S(=O)(=O)c3cccc4nonc34)CC2)CC1 -10.8%
Nc1ncc(S(=O)(=O)NCc2ccccc2F)cn1 4.18%
Cc1ccc(Nc2cc(C(=O)NC3CCCC3)c3ccccc3n2)cc1C -13.1%
CCOC(=O)c1c(C)n(-c2ccccc2)c2ccc(OC(=O)c3ccccc3Cl)cc12 0.94%
CC(C)COc1ccc(C(=O)NCC2OCCc3ccccc32)cc1 (stereo unspecified) 0.685%
CCOc1ccc(CCNC(=O)C2CCCN(c3nnc(C)c4c(C)n(-c5ccccc5)nc34)C2)cc1 (stereo unspecified) -12.2%
NC(=O)c1c(NC(=O)c2noc3c2CCCC3)sc2c1CCCC2 -0.864%
COc1ccc2oc(=O)c(C(=O)NCCc3c(C)[nH]c4c(C)cccc34)cc2c1 0.366%
CCOc1cc2[nH]c(=O)n(CCC(=O)N3CCN(c4cccc(Cl)c4)CC3)c(=O)c2cc1OCC -6.35%
COC(=O)c1cc(NC(=O)CCS(=O)(=O)c2cc(Br)cc3c2N(C(=O)C2CC2)CC3)cc(C(=O)OC)c1 1.69%
